# Measurements from the supplement of paper PMC10338343.
# ± gives the standard deviation. Over roughly 5,500 sequences, “pre-steady-state target cleavage rate” has its median near 0.1; the highest 2% begin near 0.64. This is a selection; strong and weak results do not stand in their true shares.
# Tested on: MIWI (PIWIL1) piRISC loaded with piRNA #2 (30 nt)
# Test: pre-steady-state target cleavage rate (min^-1); MIWI and MILI are mouse PIWI proteins and EfPiwi is from a freshwater sponge; tags in brackets are library labels; higher = faster piRNA-guided slicing of the target
# Conditions: guide: piRNA #2 5'p-UUAGGUAACCCAGUAGAUCCAGAGGAAUUC; auxiliary factor: 500 nM mouse GTSF1
# How it was run: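 The pre-steady-state cleavage rate was derived from a burst-and-steady-state fit of Cleave-'n-Seq data. For these assays, 1 nM active affinity-purified piRISC loaded with a single synthetic guide was mixed with […] a transcribed, DNA-blocked target RNA library in HEPES–potassium acetate buffer at 33 °C, with or without 500 nM GTSF1 partner protein, for 0–8 or 0–960 min. Sequencing counts of uncleaved targets were normalised to depth and to weakly complementary targets, and k3 was capped at 0.0001 min^-1 after three trials were pooled.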
row,Sequence,pre-steady-state target cleavage rate
1,GAAUAGGUCUGGAUCUACUGGGUUACCUAA,0.154 ± 0.032
2,CUAUAUCCUCUGGAUCUACUGGGUUACCUAA,0.352 ± 0.071
3,CUUAUCCUCUGCAUCUACUGCGUUACCUAA,0.377 ± 0.032
4,CUUAACGUCUGGUUCUACUGGGUUACCUAA,0.358 ± 0.033
5,CUUAACCUCUGGAUGUACUGGGUUACCAAA,0.215 ± 0.02
6,GAAUUCCUCUGGAUCUACUGGGUUAACCUAA,0.31 ± 0.045
7,CUUAAGGAGUGGAUCUACUGGGUUACACUAA,0.0696 ± 0.016
8,CUUUUCCUGUGCAUCUACUGGGUUACCUAA,0.264 ± 0.025
9,GAAUUCCUCUGGAUCUACUGGGUUUGGUAA,0.244 ± 0.061
10,CUUAUCCUCUGGACUACUGGGUUACCUAA,0.166 ± 0.021
11,GAAUUCCUCUGGAUGUACUGGGUUACCAAA,0.327 ± 0.049
12,GAAUUCCUCUGGUACUACUGGGUUACCUAA,0.581 ± 0.092
13,CUUAAGCUCUGGAUCUUCUGGGUUACCUAA,0.0956 ± 0.018
14,CAAUUCCUCUGGAUCAAGUGGGUUACCUAA,0.00786 ± 0.0037
15,CUUAAGCUCUGGUAGUACUGGGUUACCUAA,0.063 ± 0.0097
16,CUAUUCCACUGGAUCUACUGGGUUAGCUAA,0.16 ± 0.04
17,CAAUUCCUCUGGAUCAACUGGGUAACCUAA,0.145 ± 0.027
18,CAAUUCCUCUGGAUCUACUGCGUUAGCUAA,0.128 ± 0.056
19,CUAUUCCUCUGGAUCUACAGGGUAACCUAA,0.13 ± 0.024
20,CUUAUCCUCUGGAUCUACUGGGUUACUUAA,0.562 ± 0.05
21,CUUAAGCUCUGGAACUACUCGGUUACCUAA,0.0422 ± 0.011
22,CAAUUCCUCACCAUCUACUGGGUUACCUAA,0.573 ± 0.069
23,CUUAAGGACCGGAUCUACUGGGUUACCUAA,0.0763 ± 0.025

row,Sequence,pre-steady-state target cleavage rate
1,CUUUUCCUCUGGAUCUACUGGGAUACCUUA,0.142 ± 0.026
2,CUUAAGGUCUGGAUCUACUGAGGUUACCUAA,< 0.0001
3,CUUAACUCUCUGGAUCUACUGGGUUACCUAA,0.105 ± 0.016
4,GAAAUCCUCUGGAUCUACUGGGUAACCUAA,0.111 ± 0.026
5,CAAUUCGUCUGCAUCUACUGGGUUACCUAA,0.538 ± 0.045
6,CUUAAGGUCAGGAUCUACUGGGUUACCUAA,0.101 ± 0.023
7,CUUAAGCUCUGGAUCUACUGCGUUACCAAA,0.117 ± 0.029
8,CUUAAGGUCUGGAUCUACAGGGUUUCCUAA,0.1 ± 0.014
9,GAAAUCCUCUGGAUCAACUGGGUUACCUAA,0.234 ± 0.05
10,CUUAAGGAGAGAUCUACUGGGUUACCUAA,0.00757 ± 0.0027
11,CUAUUCCUCUGCAUCUACUGGGUUACCUUA,0.325 ± 0.05
12,CUUAACCUCAGGAUCUACUGCGUUACCUAA,0.321 ± 0.037
13,CUUAUCCUCUGGAUCUACUGGGUUAUCUAA,0.569 ± 0.082
14,CUUAAGGAGACCUUCCUACUGGGUUACCUAA,0.00294 ± 0.0029
15,CUUAAGCUCUGGAUCUAGUGGCUUACCUAA,0.00679 ± 0.004
16,CUUAAGGUCUGGAUGUACUGGGUUUCCUAA,0.0738 ± 0.026
17,CUUAUCCUCUGGAUCUACUGCGUUUCCUAA,0.124 ± 0.03
18,CUUAAGGACUGGAUCUACUGGGUAACGUAA,0.0406 ± 0.025
19,CUUAAGCUCUGGAUCUUCUGGCUUACCUAA,0.0206 ± 0.0097
20,CUAUUCCUCUGGAUCUACUCGGUUACCUUA,0.0832 ± 0.022
21,CUAUUCCUCUGGAUCUACUGGGUUACGAAA,0.204 ± 0.043
22,CUUAUCCUCAGGAACUACUGGGUUACCUAA,0.486 ± 0.032
23,CUAUUCCUCUGGAUCUACUGGGUUACCCUAA,0.185 ± 0.058

row,Sequence,pre-steady-state target cleavage rate
1,CUUAAGGUCUCGAUCUACUGGGAUACCUAA,0.117 ± 0.022
2,CUUUUGCUCUGGAUCUACUGGGAUACCUAA,0.118 ± 0.014
3,CAAUUCCUCUGGAUCUACUGGGUAUACCUAA,0.602 ± 0.068
4,CUAUUCGCUCUGGAUCUACUGGGUUACCUAA,0.134 ± 0.026
5,CAAUUCCUCUGGAUCUACUGGGUUACCUAC [g2:g29:cont:t1C],0.415 ± 0.051
6,CUUAAGCUCUGGAAUCUACUGGGUUACCUAA,0.115 ± 0.013
7,CUUAUCCUCUGGAUGUAGUGGGUUACCUAA,0.0926 ± 0.022
8,CUUAUCCACUGGAUCUAGUGGGUUACCUAA,0.289 ± 0.025
9,CUUAAGGUCUGGAUCUACUUGGUUACCUAA,0.00523 ± 0.0043
10,CUUAAGGACUGGAUCUACAGGGUUAGCUAA,0.036 ± 0.017
11,CUAUUACCUCUGGAUCUACUGGGUUACCUAA,0.227 ± 0.041
12,CAAUUCCUCGUGGAUCUACUGGGUUACCUAA,0.189 ± 0.037
13,CUAUACCUGUGGAUCUACUGGGUUACCUAA,0.381 ± 0.036
14,CUUAACCUCUGCAUCUACUCGGUUACCUAA,0.0836 ± 0.01
15,CUUUUCCGCUGGAUCUACUGGGUUACCUAA,0.517 ± 0.046
16,CUUAAGCUCUGGAUCUAGUGGGUUACGUAA,0.0687 ± 0.0089
17,GAAUUCCUCUGCAUCUUCUGGGUUACCUAA,0.389 ± 0.036
18,CUUUACCUCUGGAUCUACUGGGUUAGCUAA,0.313 ± 0.035
19,CUUAAGGACUGGAUCUACAGGCUUACCUAA,0.0145 ± 0.01
20,GUAUUCCUCUGGAUCAACUGGGUUACCUAA,0.0482 ± 0.025
21,CUUAAGGUGUGGAUCUACUGGGUUACCUUA,0.0732 ± 0.015
22,CUUAACCUCUGGAUCUACUGGGUUAGCAAA,0.0935 ± 0.014
23,CUUAAGGACUGGAUCUACUGGGUUACCGAA,0.0317 ± 0.024

row,Sequence,pre-steady-state target cleavage rate
1,CUUAAGGACUGGAUCUACAGGGAUACCUAA,0.0148 ± 0.0085
2,CUAAUCCUCUGGAUCUAGUGGGUUACCUAA,0.214 ± 0.025
3,CUUAUGCUCUGGUUCUACUGGGUUACCUAA,0.325 ± 0.031
4,GAAUUCCUCUGGAUCUACUGGGUUAGGAUA [g6:g30:cont:t1A],0.126 ± 0.04
5,CUUAAGGUCUGGAUCUACUGGCAUACCUAA,0.00954 ± 0.005
6,CUAUUCCUGUCGAUCUACUGGGUUACCUAA,0.551 ± 0.043
7,CUUAUCCUCUGGAUCUACUGGGUUACCUCAA,0.337 ± 0.05
8,GAAUUCCUCUGGAUCUUCUGGGUUACCAAA,0.294 ± 0.047
9,CUUAAGGUCUCCUUCUACUGGGUUACCUAA,0.00435 ± 0.0033
10,CUUAAGGAGUGGAUCUACUGGGUUACCAAA,0.0307 ± 0.014
11,CAAUUCGAGUGGAUCUACUGGGUUACCUAA,0.407 ± 0.045
12,CUUAAGCUCUGGCUCUACUGGGUUACCUAA,0.248 ± 0.027
13,CAAUUCCUCUGGAUCUACUGGGGUUACCUAA,0.0623 ± 0.016
14,CUUAAGGAGAGGAUCUACUGGGUUACAUAA,0.096 ± 0.02
15,CAAUUCCUCUGGAUCUACUGGGUUAGCUAA,0.338 ± 0.071
16,GUAUUCGUCUGGAUCUACUGGGUUACCUAA,0.231 ± 0.058
17,CUUAUCCUCUGGAUGAACUGGGUUACCUAA,0.234 ± 0.05
18,GAAUUCCUCUGGAUCUUCUGCGUUACCUAA,0.272 ± 0.038
19,GAAUUCCUCUGGAAUCUACUGGGUUACCUAA,0.341 ± 0.056
20,GAAUUCCUUUGGAUCUACUGGGUUACCUAA,0.404 ± 0.042
21,CUAUUCCACUGGAUCUACUGGGUUACGUAA,0.481 ± 0.066
22,CUAUUCCUCAGGAUCUACUGCGUUACCUAA,0.561 ± 0.069
